Assay results published in paper PMC13086964 (Nature Communications, 2026).

Molecular target: T1, recombinant full length His6-MBP-FAN1-His6 (human, UniProt Q9Y2M0 1-1017)
T1 construct: human FAN1, full length; Tag ends are read from the printed name His6-MBP-FAN1-His6; also called MBP-His-tagged FAN1; recombinant human FAN1; source: E. coli BL21, purified (HisTrap, MBPTrap, desalting); not shown: His6, N-terminal, kept; MBP, N-terminal, kept; His6, C-terminal, kept
T1 sequence (looked up): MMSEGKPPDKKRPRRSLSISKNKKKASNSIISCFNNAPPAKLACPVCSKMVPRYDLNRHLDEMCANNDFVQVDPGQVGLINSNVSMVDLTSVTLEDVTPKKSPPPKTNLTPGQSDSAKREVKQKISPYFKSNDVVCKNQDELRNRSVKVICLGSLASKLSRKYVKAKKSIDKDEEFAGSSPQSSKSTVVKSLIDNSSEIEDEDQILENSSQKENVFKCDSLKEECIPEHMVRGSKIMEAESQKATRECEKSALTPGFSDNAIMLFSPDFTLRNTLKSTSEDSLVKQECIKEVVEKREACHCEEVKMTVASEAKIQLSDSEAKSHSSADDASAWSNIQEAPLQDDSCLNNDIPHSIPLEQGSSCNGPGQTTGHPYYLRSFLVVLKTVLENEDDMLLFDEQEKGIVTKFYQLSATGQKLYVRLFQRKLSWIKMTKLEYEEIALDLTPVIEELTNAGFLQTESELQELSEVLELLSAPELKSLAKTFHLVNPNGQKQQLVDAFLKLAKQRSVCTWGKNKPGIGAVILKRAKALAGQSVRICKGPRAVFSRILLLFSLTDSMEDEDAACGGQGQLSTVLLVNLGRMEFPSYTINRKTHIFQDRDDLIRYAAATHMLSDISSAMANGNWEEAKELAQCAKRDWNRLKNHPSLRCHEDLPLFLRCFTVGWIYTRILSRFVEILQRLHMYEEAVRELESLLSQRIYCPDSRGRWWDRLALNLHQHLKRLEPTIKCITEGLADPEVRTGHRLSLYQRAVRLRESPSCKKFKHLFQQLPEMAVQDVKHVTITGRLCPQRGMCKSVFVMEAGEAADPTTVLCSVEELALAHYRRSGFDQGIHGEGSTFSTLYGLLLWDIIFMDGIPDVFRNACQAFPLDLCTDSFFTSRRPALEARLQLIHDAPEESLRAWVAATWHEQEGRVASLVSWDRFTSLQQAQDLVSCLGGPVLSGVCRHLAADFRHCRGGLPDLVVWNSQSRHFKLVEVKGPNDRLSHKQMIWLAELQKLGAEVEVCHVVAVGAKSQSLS
Test: pull-down; in vitro streptavidin pull-down with recombinant biotin-tagged USP7 TRAF-like or UBL domains and MBP-His-tagged FAN1 (Figure S3A)
Conditions: both partners purified

- binding result: binds
B1: USP7 TRAF domain ([…]), biotinylated (domain or fragment)
chain: not shown
modifications: biotin (on the AviTag)
notes: pNICBio2 vector; also called USP7 TRAF-like domain; source: E. coli BL21(DE3)-pBirAcm, purified (TALON, SEC); not shown: AviTag, C-terminal, kept
